Results taken from ChEMBL document CHEMBL1201862, “PubChem BioAssay data set” (2004).
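Tested at 5 concentrations; 48 h exposure; 96-well plates; endpoints linearly interpolated, else capped at highest concentration. GI50 marks 50% less growth.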 Activity calls are given as the source filed them. Cut-off read from the data, not from the text of the source: active = GI50 up to about 1.1 µM and inactive = higher.

What follows are molecules tested on NCI-H322M (assay: NCI-60 cell line screen, 48 h).

Compound	GI50
Cc1ccc(S(=O)(=O)c2c(N)c3nccn3c3nc4ccccc4nc23)cc1	inactive: 38.6 µM
CCCCC#C[I+]c1ccccc1	inactive: 16.3 µM
O=C(O)/C=C(/C(=O)O)C12CCN3CC4=CCOC5CC(=O)NC1C5C4CC32 (stereo not given)	inactive: > 100 µM
CC1OC(OC2C(O[C@H]3CC[C@@]4(C)C(=CC[C@H]5[C@@H]6C[C@@H]7O[C@]8(CC[C@H](C)CN8)[C@@H](C)[C@@H]7[C@@]6(C)CC[C@@H]54)C3)OC(CO)C(O)C2OC2OC(CO)C(O)C(O)C2O)C(O)C(O)C1O (stereo not given in full)	inactive: 19.5 µM
O=C(O)CNS(=O)(=O)c1ccc(NC(=O)CI)cc1	inactive: 30.5 µM
CCC(N)(C(=O)O)C(C)C (stereo not given)	inactive: > 100 µM
CCN(CC)CCNC(=O)c1cccc2nc3ccccc3nc12	inactive: 8.11 µM
COc1ccc2c(c1)[n+]([O-])c(/C(C)=N/NC(=O)c1ccccc1O)c(C)[n+]2[O-]	inactive: > 100 µM
O=C1c2ccccc2/C(=N\c2ccc3ccccc3c2)C1(C1=C(c2ccccc2)/C(=N/c2ccc3ccccc3c2)c2ccccc21)c1ccccc1 (stereo not given)	inactive: 25.4 µM
O/N=C(\C=N\O)c1ccc2c(c1)Sc1ccccc1O2	inactive: 35.2 µM
COc1ccc2c(Cc3c4ccccc4cc4ccccc34)cncc2c1O	inactive: 7.13 µM
N#CC(C#N)=C1SC(=N\c2ccccc2)/C(=N/c2ccccc2)N1c1ccccc1	inactive: 53.8 µM
COc1cc2c(cc1OC)C1Cc3ccccc3CCN1CC2 (stereo not given)	inactive: > 100 µM
CN(C)/N=N/c1ccc([N+](=O)[O-])cc1C(N)=O	inactive: > 100 µM
S=C(N/N=C(/c1ccccc1)c1ccccn1)N1CCCCC1	inactive: 1.19 µM
CC(=O)Oc1c(C)cc2c(c1C)C(C)CN2C(C)=O (stereo not given)	inactive: > 100 µM
C=C(c1ccccc1)[C@@]1(O)CCCC[C@H]1NC(c1ccccc1)c1ccccc1	inactive: 16.2 µM
CC(C)=CCC/C(C)=C/COc1c2ccoc2cc2oc(=O)ccc12 [BERGAMOTTIN]	inactive: 33.8 µM
OCCNc1ncnc2c1ncn2C1OC(CO)C(O)C1O (stereo not given)	inactive: 38.4 µM
Cn1c2ccccc2c2[nH]c3ccccc3c(=O)c21	inactive: > 100 µM
CC(=O)n1cc(C2CC23N=C(c2ccccc2)OC3=O)c2ccccc21 (stereo not given)	inactive: 38.6 µM
CN(C)NC1=C([N+](=O)[O-])C=NN(c2ccccc2)C1	inactive: 4.04 µM
CC(=O)OC1=C2CC3(C)OC(=O)CC(C)(C)C3=CC=C2C=C(C(C)C)C1=O (stereo not given)	inactive: 1.71 µM

Compound	GI50
COc1cc(C2C3C=CC=C4CC=CC(=C43)C3CCC(=O)N32)cc(OC)c1OC (stereo not given)	inactive: > 100 µM
C[C@]12C[C@@H](OC(=O)[C@]1(C)O)[C@@H]([C@]1(O)CC[C@H]3[C@@H]4C[C@H]5O[C@]56C[C@H]5O[C@H]5C(=O)[C@]6(C)[C@H]4CC[C@@]31C)C2	inactive: > 50 µM
CCN(CC)CCCNc1nc(=O)[nH]c(C)c1C(=O)Nc1ccc2c(c1)c1ccccc1n2CC	inactive: > 100 µM
c1ccc2c(-c3cnc(-c4c[nH]c5ccccc45)cn3)c[nH]c2c1	inactive: 41.7 µM
CC(=O)c1cc(CC2Cc3cc4c(cc3C2=O)CCC4)cc2c1CCC2 (stereo not given)	inactive: > 100 µM
COc1ccc(N/N=C/C2=CC(C)(C)C(C#N)(C#N)C(O)=C2C#N)cc1	inactive: 43.4 µM
CCCCN(CCCC)C(=Nc1ccccc1)N(CCCC)CCCC	inactive: 12.9 µM
Cc1cc(-c2c(F)cc3c4nn([C@H]5CC[C@@H](N(C)C)CC5)c(=O)c-4cn(C4CC4)c3c2F)cc(C)n1	inactive: 1.83 µM
CN(C)CCOc1ccc2[nH]c(C(=O)N3CC(CCl)c4c3cc(NC(=O)OCc3ccc([N+](=O)[O-])cc3)c3ccccc43)cc2c1 (stereo not given)	inactive: 1.3 µM
COc1ccccc1N1CCN(CCCN2C(C(=O)c3ccccc3)=C(O)c3c(C)cc(C)nc3S2(=O)=O)CC1	inactive: > 100 µM
CC(=O)/N=C1\NC(=O)/C(=C/c2ccc(Cl)cc2Cl)N1C	inactive: > 100 µM
O=C(Nc1cccc(C(F)(F)F)c1)C(=O)C1NC(=S)NC1=O (stereo not given)	inactive: > 100 µM
COc1cc(CNc2c3ccccc3nc3ccccc23)cc(OC)c1OC	inactive: 3.94 µM
COc1ccc(C#CC(=O)O)c(OC)c1	inactive: > 100 µM
Cc1cc2occ(-c3ccc(Cl)cc3)c2c(=O)o1	inactive: > 100 µM
CCCCCC(/C=C/[C@@H]1CC(=O)C[C@H]1O[Si](C)(C)C(C)(C)C)OCOCCOC (stereo not given in full)	inactive: 16 µM
Cn1ncc2[nH]cnc2c1=S	inactive: > 100 µM
Cc1ccc(-c2n[nH]c(=O)n2N2C(=O)C=CC2=O)cc1	inactive: > 100 µM
C=CC1(CC[C@]2(c3ccc(OC)c(OC)c3)C=[N+]([O-])O[C@H](O[C@@H]3CCCC[C@H]3C(C)(C)c3ccccc3)C2)OCC(C)(C)CO1	inactive: 33.3 µM
CC(=O)N1NC(c2ccccc2)=NC(=O)C1c1cc(C)c(O)c(C)c1 (stereo not given)	inactive: 27.7 µM
CN(C)c1ccc2c3c(c(=O)oc2c1)CCC3	inactive: 87.9 µM
CC1=C(C(=O)OCCO[N+](=O)[O-])C(c2ccccc2C(F)(F)F)C(C(=O)OC(C)C)=C(C)N1 (stereo not given)	inactive: 47 µM
S=C(S)NCCN1CCNCC1	inactive: > 100 µM

Compound	GI50
Cn1c(-c2ccccc2)cc(-c2ccc3c(c2)OCO3)c1-c1ccsc1	inactive: > 100 µM
CC(=O)O[C@H]1C(=O)[C@@]2(C)C([C@H](OC(=O)c3ccccc3)[C@]3(O)C[C@H](OC(=O)[C@H](O)[C@@H](NC(=O)c4ccc(Cl)cc4)c4ccccc4)C(C)=C1C3(C)C)C1(OC(C)=O)CO[C@@H]1C[C@@H]2O (stereo not given in full)	active: 0.083 µM
CC(C)(C)c1nc2c(o1)/C(=N\c1ccc(F)cc1)c1ccccc1C2=O	inactive: 18.3 µM
C=C(C(=O)C(=O)Oc1ccc(Cl)cc1)C(=O)c1ccc(C)cc1	inactive: > 100 µM
CNC(=O)c1nnn(Cc2ccccc2)c1S	inactive: > 100 µM
Cc1cc2nc(O)c(C(C)C(=O)c3ccc(Cl)cc3)nc2cc1C (stereo not given)	inactive: 38.6 µM
Cc1nc(C)c(N2CCN(CN)CC2)c(O)n1	inactive: > 100 µM
O=C(O)C1CCC(=O)N1S(=O)(=O)c1ccccc1 (stereo not given)	inactive: > 100 µM
CN1C(=O)C(=O)c2cc3c(c4c2c1cc1ccccc14)OCO3 [CEPHARADIONE A]	inactive: 20.7 µM
CCOC(=O)C(C(CC(=O)OC)NC(=O)OCc1ccccc1)C1(C)OCCO1 (stereo not given)	inactive: > 100 µM
C1CCN2CC34CC(CC5CCCN(C6CCCC3N6)C54)C2C1 (stereo not given)	inactive: > 100 µM
O=c1c2c3c(sc2nc2n1N=C(c1ccc(Br)cc1)CS2)CCCC3	inactive: > 100 µM
COc1ccccc1-n1c(NN)nc2ccc(Br)cc2c1=O	inactive: 33.4 µM
O=C1/C(=N/O)Cc2c(Br)ccc(Br)c21	inactive: 69.5 µM
CC(=O)OC1CC2(C)OC(Cc3ccccc32)O1 (stereo not given)	inactive: > 100 µM
O=C(N/C(=C\c1ccc(Oc2ccc(Cl)c(Cl)c2)cc1)c1nc2ccccc2[nH]1)c1ccccc1	inactive: 20.2 µM
CCCCNC(=O)C1C2CCC(O2)C1C(=O)O (stereo not given)	inactive: 86.7 µM
C1=N\CCNCC/N=C/c2ccccc2OCc2cccc(n2)COc2ccccc2/1	inactive: 63.4 µM
CCN(CC)CC[n+]1ccc2c(C)c3[nH]c4ccccc4c3c(C)c2c1	active: 0.59 µM
CC(C)C1CC[C@H](C)C[C@@H]1OC(=O)C(C(=O)O[C@H]1C[C@@H](C)CCC1C(C)C)C(O)[C@@H]1OC(C)(C)O[C@H]1C1COC(C)(C)O1 (stereo not given in full)	inactive: 21.5 µM
COc1ccc(OC)c(/C(C)=N/NC(N)=S)c1	inactive: > 100 µM
N#Cc1cn(-c2c3ccccc3nc3ccccc23)c(=O)[nH]c1=O	inactive: 9.29 µM
N[C@H]1CCC[C@@H](O)C1O (stereo not given in full)	inactive: > 100 µM

Compound	GI50
CC1=CC(=O)c2c(O)cccc2C1=O [PLUMBAGIN]	inactive: 16.3 µM
CC(C)C1(C)N=C(C(F)(F)F)c2cc(C(=O)C(F)(F)F)c3ccccc3c2N1 (stereo not given)	inactive: 6.15 µM
COC(=O)C1=CC2C=CC(C1C(=O)OC)C1C(C(=O)OC)=C(C(=O)OC)C(C(=O)OC)=C(C(=O)OC)C21OC (stereo not given)	inactive: > 100 µM
CC1C2(C)OC(=N)C(C#N)(C(c3cccc([N+](=O)[O-])c3)O2)C1(C#N)C#N (stereo not given)	inactive: > 100 µM
Cc1c[nH]c2c1C13CC1CN(C(=O)c1cc4cc(NC(=O)c5cc6ccccc6o5)ccc4[nH]1)C3=CC2=O (stereo not given)	active: < 0.001 µM
COc1cc2c(cc1OC)CC1c3cc(OC)c(OC)cc3CCN1CC2 (stereo not given)	inactive: > 100 µM
Cc1ccc2nc(N)[nH]c(=O)c2c1Sc1ccncc1	inactive: > 100 µM
CCCCOC(=O)C1C2CCC(O2)C1C(=O)OCCCC (stereo not given)	inactive: 47.5 µM
C=CCNC(=S)N/N=C1\C(=O)Nc2ccc([N+](=O)[O-])cc21	inactive: 87.9 µM
CCOC(=O)CC1Nc2ccccc2C12CCc1c([nH]c3ccccc13)C2C(=O)OCC (stereo not given)	inactive: 19.6 µM
CC1(C)OC(COCCOCCCCCO)C(COCCOCCCCCO)O1 (stereo not given)	inactive: > 100 µM
[N-]=[N+]=Nc1c(C=O)c(=O)n2c3c(cccc13)CCC2	inactive: 17.6 µM
COC(CC1(/C=C/O[Si](C(C)C)(C(C)C)C(C)C)C(=O)N(C)c2ccccc21)OC (stereo not given)	inactive: > 100 µM
CCOC(=O)c1nc2cc(C(F)(F)F)ccc2nc1Nc1ccc(OC)c(OC)c1	inactive: > 100 µM
COc1ccc(CNc2nc(NCc3ccc(OC)cc3)nc(NC3CCCC3)n2)cc1	inactive: 2.42 µM
CC1(C)CCC2(C(=O)OC3OC(CO)C(O)C(O)C3O)CCC3(C)C(=CCC4C5(C)CCC(OC6OC(CO)C(O)C(O)C6O)C(C)(C)C5CCC43C)C2C1 (stereo not given)	inactive: 16.9 µM
C#CCOC(=O)C(N)CS (stereo not given)	inactive: > 100 µM
C=C(Cl)C(=C)CCC(Cl)C(C)C (stereo not given)	inactive: > 100 µM
CC(C)c1cc(C(C)C)c(P2(=O)CC3C(Cl)(Cl)C3(C)C2)c(C(C)C)c1 (stereo not given)	inactive: 15 µM
Cc1cc(N(CCC#N)CCC#N)ccc1C(/N=N/c1ccccc1)=N\NC(=O)c1ccccc1	inactive: 21.9 µM
Cn1nc(Cc2ccc(Cl)cc2)n(N)c1=O	inactive: > 100 µM
